# Test results: the supplement of paper PMC8728848
# This is one part of the list.
# B1: SCA (Schizophyllum commune) (protein)
# chain: MGIDQGVYLITNAGSGTAATLKDGYVKGWERIKGKEQLNQLWFVKSVKTSASDPGYAAFNLATNKVLDLEKGLADRGTPILGWDYHEGDNQHWVIKKQADGKYYKIQSVKTQTFVDLNNGGKDNGTKIQGWVGSWDETNSHQRWVFNQFSATGSRIKSILDTHPKIHGKVIVEWPDRIYFTPDQYIFEAIWAKTGLADIKPRDPLFQSEAYEKVFKGWVVSRAQEIIKVDGFDILVGSLSLVEKSTQKIKVLDVSVRTSDDKSPDLSQIVFFDPESGRTLVDIPEGYEVNSVII
# Legend:
# Experiment in all cases: glycan array binding signal (z-score within array); higher = stronger binding
# Settings in all cases: glycan notation: IUPAC condensed, linker removed
# GlcNAc(b1-6)GalNAc = target: GlcNAc(b1-6)GalNAc
# Summary of the method: (§1)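 The binding signal is a Z-score computed within each array and averaged over linkers. Arrays of the same protein sequence at different concentrations or buffers were also averaged together. Data originate from 3228 arrays in the Consortium for Functional Glycomics database, kept only where the protein sequence was available.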
# GlcNAc3Prop(b1-4)GlcNAc = target: GlcNAc3Prop(b1-4)GlcNAc
# Summary of the method: as §1
# [1] = target: GlcNAc6S(b1-3)Gal(b1-4)GlcNAc
# Summary of the method: as §1
# Kdn(a2-3)Gal(b1-3)GalNAc = target: Kdn(a2-3)Gal(b1-3)GalNAc
# Summary of the method: as §1
# Kdn(a2-3)Gal(b1-3)GlcNAc = target: Kdn(a2-3)Gal(b1-3)GlcNAc
# Summary of the method: as §1
# Kdn(a2-3)Gal(b1-4)Glc = target: Kdn(a2-3)Gal(b1-4)Glc
# Summary of the method: as §1
# Kdn(a2-3)Gal(b1-4)GlcNAc = target: Kdn(a2-3)Gal(b1-4)GlcNAc
# Summary of the method: as §1
# [2] = target: Kdn(a2-3)Gal(b1-4)[Fuc(a1-3)]GlcNAc
# Summary of the method: as §1
# Kdn(a2-6)Gal(b1-4)GlcNAc = target: Kdn(a2-6)Gal(b1-4)GlcNAc
# Summary of the method: as §1
# [3] = target: Man(a1-2)Man(a1-2)Man(a1-3)Man
# Summary of the method: as §1
# [4] = target: Man(a1-2)Man(a1-2)Man(a1-6)[Man(a1-3)]Man
# Summary of the method: as §1
# Man(a1-2)Man(a1-3)Man = target: Man(a1-2)Man(a1-3)Man
# Summary of the method: as §1
# [5] = target: Man(a1-2)Man(a1-3)[Man(a1-2)Man(a1-6)]Man
# Summary of the method: as §1
# [6] = target: Man(a1-2)Man(a1-3)[Man(a1-2)Man(a1-6)]Man(a1-6)[Man(a1-2)Man(a1-2)Man(a1-3)]Man
# Summary of the method: as §1
# [7] = target: Man(a1-2)Man(a1-3)[Man(a1-2)Man(a1-6)]Man(a1-6)[Man(a1-2)Man(a1-2)Man(a1-3)]Man(b1-4)GlcNAc(b1-4)GlcNAc
# Summary of the method: as §1
# [8] = target: Man(a1-2)Man(a1-3)[Man(a1-6)]Man(a1-6)[Man(a1-2)Man(a1-3)]Man(b1-4)GlcNAc(b1-4)GlcNAc
# Summary of the method: as §1
# [9] = target: Man(a1-2)Man(a1-6)[Man(a1-3)]Man(a1-6)[Man(a1-2)Man(a1-2)Man(a1-3)]Man
# Summary of the method: as §1
# [10] = target: Man(a1-2)Man(a1-6)[Man(a1-3)]Man(a1-6)[Man(a1-2)Man(a1-2)Man(a1-3)]Man(b1-4)GlcNAc(b1-4)GlcNAc
# Summary of the method: as §1
# Man(a1-3)[Man(a1-6)]Man = target: Man(a1-3)[Man(a1-6)]Man
# Summary of the method: as §1
# [11] = target: Man(a1-3)[Man(a1-6)]Man(a1-6)[Man(a1-2)Man(a1-3)]Man(b1-4)GlcNAc(b1-4)GlcNAc
# Summary of the method: as §1
# [12] = target: Man(a1-3)[Man(a1-6)]Man(a1-6)[Man(a1-3)]Man
# Summary of the method: as §1
# [13] = target: Man(a1-3)[Man(a1-6)]Man(a1-6)[Man(a1-3)]Man(b1-4)GlcNAc(b1-4)GlcNAc
# Summary of the method: as §1
# [14] = target: Man(a1-3)[Man(a1-6)]Man(b1-4)GlcNAc(b1-4)GlcNAc
# Summary of the method: as §1
# Man(a1-6)Man = target: Man(a1-6)Man
# Summary of the method: as §1
# Man(b1-4)GlcNAc = target: Man(b1-4)GlcNAc
# Summary of the method: as §1
# Neu5Ac(a2-3)Gal = target: Neu5Ac(a2-3)Gal
# Summary of the method: as §1
# [15] = target: Neu5Ac(a2-3)Gal(b1-3)GalNAc
# Summary of the method: as §1
# [16] = target: Neu5Ac(a2-3)Gal(b1-3)GalNAc(b1-3)Gal(a1-4)Gal(b1-4)Glc
# Summary of the method: as §1
# [17] = target: Neu5Ac(a2-3)Gal(b1-3)GalNAc(b1-4)[Neu5Ac(a2-3)]Gal(b1-4)Glc
# Summary of the method: as §1
# [18] = target: Neu5Ac(a2-3)Gal(b1-3)GalNAc(b1-4)[Neu5Ac(a2-8)Neu5Ac(a2-3)]Gal(b1-4)Glc
# Summary of the method: as §1
# [19] = target: Neu5Ac(a2-3)Gal(b1-3)GalNAc6S
# Summary of the method: as §1
# [20] = target: Neu5Ac(a2-3)Gal(b1-3)GlcNAc
# Summary of the method: as §1
# [21] = target: Neu5Ac(a2-3)Gal(b1-3)GlcNAc(b1-3)Gal(b1-3)GlcNAc
# Summary of the method: as §1
# [22] = target: Neu5Ac(a2-3)Gal(b1-3)GlcNAc(b1-3)Gal(b1-4)GlcNAc
# Summary of the method: as §1
# [23] = target: Neu5Ac(a2-3)Gal(b1-3)GlcNAc(b1-3)GalNAc
# Summary of the method: as §1
# [24] = target: Neu5Ac(a2-3)Gal(b1-3)GlcNAc6S
# Summary of the method: as §1
# [25] = target: Neu5Ac(a2-3)Gal(b1-3)[Fuc(a1-4)]GlcNAc
# Summary of the method: as §1
binder,measurement,setting,value
B1,glycan array binding signal (z-score),GlcNAc(b1-6)GalNAc,-0.162
same,glycan array binding signal (z-score),GlcNAc3Prop(b1-4)GlcNAc,-0.159
same,glycan array binding signal (z-score),[1],-0.161
same,glycan array binding signal (z-score),Kdn(a2-3)Gal(b1-3)GalNAc,-0.154
same,glycan array binding signal (z-score),Kdn(a2-3)Gal(b1-3)GlcNAc,-0.163
same,glycan array binding signal (z-score),Kdn(a2-3)Gal(b1-4)Glc,-0.152
same,glycan array binding signal (z-score),Kdn(a2-3)Gal(b1-4)GlcNAc,-0.163
same,glycan array binding signal (z-score),[2],-0.157
same,glycan array binding signal (z-score),Kdn(a2-6)Gal(b1-4)GlcNAc,-0.162
same,glycan array binding signal (z-score),[3],-0.162
same,glycan array binding signal (z-score),[4],-0.159
same,glycan array binding signal (z-score),Man(a1-2)Man(a1-3)Man,-0.157
same,glycan array binding signal (z-score),[5],-0.16
same,glycan array binding signal (z-score),[6],-0.159
same,glycan array binding signal (z-score),[7],-0.163
same,glycan array binding signal (z-score),[8],-0.16
same,glycan array binding signal (z-score),[9],-0.156
same,glycan array binding signal (z-score),[10],-0.163
same,glycan array binding signal (z-score),Man(a1-3)[Man(a1-6)]Man,-0.16
same,glycan array binding signal (z-score),[11],-0.158
same,glycan array binding signal (z-score),[12],-0.162
same,glycan array binding signal (z-score),[13],-0.164
same,glycan array binding signal (z-score),[14],-0.162
same,glycan array binding signal (z-score),Man(a1-6)Man,-0.162
same,glycan array binding signal (z-score),Man(b1-4)GlcNAc,-0.161
same,glycan array binding signal (z-score),Neu5Ac(a2-3)Gal,-0.147
same,glycan array binding signal (z-score),[15],-0.136
same,glycan array binding signal (z-score),[16],-0.155
same,glycan array binding signal (z-score),[17],-0.15
same,glycan array binding signal (z-score),[18],-0.16
same,glycan array binding signal (z-score),[19],-0.16
same,glycan array binding signal (z-score),[20],-0.163
same,glycan array binding signal (z-score),[21],-0.162
same,glycan array binding signal (z-score),[22],-0.155
same,glycan array binding signal (z-score),[23],-0.159
same,glycan array binding signal (z-score),[24],-0.162
same,glycan array binding signal (z-score),[25],-0.16
